Test results taken from the RNAGym collection of RNA variant scans (doi:10.7554/elife.90254).
The source gives no read counts; variants with many changes may rest on few reads.

B1: LINE1-mini (parent)
chain: GGCAGAGCUCAACACAGCGUGGCAAAGUGGCUGUGGCUAGACUGCC

Variants of: B1
Experiment: self-cleavage, relative activity (ratio to wild type); higher = more cleavage; in vitro, sequencing; the parent is a self-cleaving ribozyme

Variant | self-cleavage
C18A G21U A39G | 0.04
C18A A26G G33C A39U G44U | 0.02
C18A C31A G40U | 0.03
G17U G22C C23A U38G A41C | 0.01
G17C U20C G33A | 0.02
G17C G33A A39U | 0.1
G17U C42A C45G | 0.03
C18A U28C G40U | 0.04
C18A G21U U34A | 0.04
C18G C23U G36C | 0.01
C18A A26C G27U | 0.43
C18A G33U G36U | 0.03
C18A G33U G36C | 0.01
C18G C42A G44A | 0.01
C18A G21U U28C | 0.13
C18A G19C G21C C23G U28A C45U | 1.64
G17U G22U G29A | 0.5
C18A U32C A39G | 0.05
G17U C18A G36U | 0.02
G17U G21A A41U | 0.3
G17U C18A G35A C42U | 0.03
C18A A26C U34G C37U A41G | 0.09
G17U C31U C37A | 0
G17U A41C C46A | 0.01

Variant | self-cleavage
C18A G19C G35A G40U | 0.02
G17U G21U G29U C42G | 0.02
C18A G21U U28G A39G | 0.02
G17U C18G C45A | 0.03
G17C U20G C45A | 0.01
G17U C23G C37U | 0.11
G17C U28C C37A | 0
G17C G35A G40U | 0.02
C18A G40A C46G | 0.1
C18A A25C C31A U38G | 0.01
G17U G29C G35C C42A | 0.02
C18A G22U A41C | 0.01
C18A G21U C23G G27U C37A | 0.14
C18A A26G C31A | 0.05
G17U C18A G22A G36U | 0.08
C18A G21C G36A | 0.13
G17U A24U C45G | 0.12
C18G C23A G35A | 0.03
C18A G21U A26C C31G G36C | 0.21
G17U G27U U34C C37U | 0.12
G17C G33U C37G | 0.02
G17U U38G C45A C46U | 0.05
G17U G33U G40U A41C C46G | 0.02
C18A G33A A41C | 0.03

Variant | self-cleavage
C18A A25U U32A U43C | 0.03
G17U G19A A25U G30A U38G | 0
G17U A25C G27C U43C | 0.04
G17U G27C C31G G33C | 0.03
G17U C18G G36A C45G | 0.05
C18A A25G G29A A39G G40U C42U G44U | 0.03
G17U G19U U43C C46A | 0.03
G17U U20C U32G U38C G40A | 0
C18A A39G G40C | 0.02
C18A G22U G44C | 0.25
C18G C23U A26U | 1.29
G17U G40A A41C C42A C45G | 0.01
G17U A24G G27C G33C | 0.02
G17U A25U G27C C37U | 0.05
G17U A39U U43A | 0.02
G17U G33A U34A | 0.03
C18A G33U C37A | 0.07
C18A G33A A39U | 0.02
C18A G35U C37A | 0
G17U G21U A25C G30U | 0.04
G17C U20G G29C G33A C45A | 0
G17C G40U C42A C45U | 0.09
G17C U28C G40A | 0.05
C18A A24C U28A | 0.18

Variant | self-cleavage
C18G G22A U38A C42U C46G | 0.04
C18G C31G U34C | 0.02
C18A G22U G27A C31U U43G | 0.01
G17U G19C G22A C45A | 1.11
G17C U28G C31U | 0
C18A G21A G27U C37A | 0.1
G17C G36C C42A | 0.02
C18A G19C U38G A41G | 0.02
G17U G40U G44C | 0.03
G17U C18A A25U G27A C42A G44A | 0.21
G17U G22C U28C G29U G44A | 0.13
G17U U38G G40A | 0
C18A U20G A41U | 0.43
C18G A24G G27U C31A | 0.08
G17U U34G G35U C46G | 0.02
G17C G30U U43C | 0.02
G17U G36A U43A | 0.17
C18A U34C C46A | 0.04
G17U C31A G40C | 0.15
C18A A24U C46U | 0.15
C18G C37U C42A | 0.02
C18A C37A U38C G40A | 0.09
G17U G35U U38A A41U | 0.01
C18A U20G C23U U32A | 0.02

Variant | self-cleavage
G17U G19C A26C C37U | 0.05
C18A C37G U43C | 0.02
C18A G22C G30A | 0.91
G17U C18A G19C G27U U43G | 0.17
C18G G22A G29C C31G C42A | 0.01
C18A G19C A26C G36U C37U A41G | 0.02
C18A G19C U32G | 0.13
C18A G30A G40C | 0.03
C18A U32C C37G | 0.01
C18A G29A U34G | 0.22
G17U U20G A26U G30C | 0.38
G17U G36C U43G | 0
G17U G22A G29U | 0.61
C18G C23G U38C U43A | 0.02
C18A A24C G29U G36U | 0.13
C18G C37G G40A | 0.09
C18A G19U U38A | 0.29
C18G A24G G40U | 0
G17C G33U C42A | 0.06
G17C U28C A39C | 0.03
C18A U28G G30A G33C | 0.04
C18A U28G C46U | 0.1
C18G A26C C31G U34G | 0.01
C18A G30A A39G | 0.02

Variant | self-cleavage
G17U C23A G35C A39C | 0.01
C18G C37U C46A | 0.02
G17U U20C A25G G33C | 0.09
C18A A25C G27U G30U | 1.65
C18G G22C C23A A25G G44U C46U | 0.04
G17U G30U C37A | 0.19
G17C G33A G36U G40U | 0.06
G17U G30C U34G A39C C46U | 0.02
C18G G21U G22C | 0.93
G17U U20C G40U | 0.08
G17C U20G G29U G44U C45A | 0.04
G17U C18A A24U A26U G27C G40U | 0.05
C18A A25C C31U | 0.06
C18A U28C G36A C46A | 0.05
C18A G21A G22C C23G | 0.19
C18A G33C C42U | 0.05
G17U C23A G27U G30U U32C G33A | 0.07
C18A G27C G44C | 0.03
C18A G19C U38A G40C | 0.01
C18A G19C G27U C46A | 0.16
G17U C18G A25G C45A | 0.1
G17U U28A C42U | 0
G17U G22A C23G A41G G44U | 0.01
C18G A25U U34C G40A G44C | 0.03

Variant | self-cleavage
G17C U20C G21U G27C U32C G40U C42U | 0.03
C18A G21C C45A | 0.43
C18A A25C A26U | 0.04
C18A G21C A41U | 0.42
G17U U28C U43A G44U | 0.04
G17U G35A C37A G44U | 0.04
G17U U20G U32A U38A | 0.03
G17U G22A C23A | 0.45
G17U U28G G33A G35C | 0.03
C18A U20G G29U G35A U38C C45U | 0.01
C18G G21U C45U | 0.09
G17U G33A G35C G40U G44A | 0.02
C18A G40U C45G | 0.03
C18G G19A G35A | 0.06
C18G G19U G30C | 0.99
G17U G19A C37U | 0.04
G17U G27A U38G G40U | 0.05
C18A C37U C42G | 0.04
C18A U34C G36C | 0.1
G17U C18A G44U | 0.04
G17C U20G U34C | 0.06
G17U C18U A24U | 0.35
C18G A25G U32G G36A | 0.01
